Test results taken from PubChem BioAssay AID588591 (National Center for Advancing Translational Sciences (NCATS), 2011).
The campaign covered roughly 390,000 compounds. About 4,700 (1.2%) were called active. This list was built around the results that the source calls inconclusive (neither active nor inactive); the mix of calls is not that of the screen. Calls come from the whole dose curve; as a rule, active = well fitted inhibition curve with a large enough effect; inconclusive = small, poorly fitted or top-dose-only effect, or another doubt; inactive = no such curve, though single readings can be large or run the other way. Potencies beside an inconclusive call are fits to weak or partial responses and may not hold up.

The compounds below were run against DNA polymerase eta (Homo sapiens) (UniProt Q9Y253) (assay: qHTS for Inhibitors of Polymerase Eta). Details: recombinant Pol eta, fluorescent DNA replication assay; series mostly up to 114 µM; activity change, negative = inhibition: at the top concentration.
Chain of UniProt Q9Y253 (Q9Y253 whole entry, looked up): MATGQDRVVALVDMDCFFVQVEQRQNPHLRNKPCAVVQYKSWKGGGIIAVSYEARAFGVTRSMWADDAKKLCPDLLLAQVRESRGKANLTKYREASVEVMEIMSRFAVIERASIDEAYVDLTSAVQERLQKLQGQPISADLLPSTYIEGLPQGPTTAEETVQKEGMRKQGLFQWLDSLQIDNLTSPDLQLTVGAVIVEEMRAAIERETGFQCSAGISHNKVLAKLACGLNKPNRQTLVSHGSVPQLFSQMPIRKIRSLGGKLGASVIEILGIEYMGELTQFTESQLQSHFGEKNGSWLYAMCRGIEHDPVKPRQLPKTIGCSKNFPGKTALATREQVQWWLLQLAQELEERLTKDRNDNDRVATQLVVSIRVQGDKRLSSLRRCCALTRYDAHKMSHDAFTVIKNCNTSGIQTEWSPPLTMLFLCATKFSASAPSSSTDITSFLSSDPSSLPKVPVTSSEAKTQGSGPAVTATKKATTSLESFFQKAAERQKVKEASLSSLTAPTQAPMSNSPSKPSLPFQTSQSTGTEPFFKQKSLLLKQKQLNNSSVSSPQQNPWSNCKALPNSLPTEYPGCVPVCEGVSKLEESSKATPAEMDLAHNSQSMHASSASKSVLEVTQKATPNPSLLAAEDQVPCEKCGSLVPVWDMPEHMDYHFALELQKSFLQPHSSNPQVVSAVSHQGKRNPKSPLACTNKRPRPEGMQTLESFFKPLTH
How it was run: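 Pol eta at 10 nM preincubated with compounds 15 min at room temperature; reaction started with fluorescent substrate (50 nM final) and read kinetically at 0 and 10 min.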
% is set by controls: 0 for no effect and ±100 for the full control effect; potency is the fitted concentration of half-maximal effect; tags give direction and shape of the fitted curve.

Compound	activity change, negative = inhibition	Potency
Cc1ccc(-c2nc3cc(C(C)C)ccc3o2)cc1NC(=O)c1cccs1	inactive: -22.8%	
COC1=CC(=O)C(O)=C(CCCCCCC/C=C/CCCCCCCC2=C(O)C(=O)C=C(OC)C2=O)C1=O		active: 3.55 µM
O=C(O)C1CSC(c2ccc3c(c2)OCO3)N1 (centres undefined)		inconclusive: 79.4 µM [inhibitor, partial curve]
CC(=O)OCC1CCCC2=C(C)C(=O)CCC21COC(C)=O (centres undefined)		inconclusive: 14.1 µM [inhibitor, partial curve, poor fit]
CCOC(=O)c1c(NC(=O)c2cc(-c3ccc(Cl)s3)nc3ccccc23)sc(C(N)=O)c1C		inconclusive: 5.62 µM [inhibitor, partial curve, poor fit]
CCCCC(c1nnnn1CC1CCCO1)N1CCN(c2nc3ccccc3s2)CC1 (centres undefined)		inconclusive: 89.1 µM [inhibitor, partial curve, poor fit]
CCCNC(=O)N(C)C[C@@H]1Oc2ncc(Br)cc2C(=O)N([C@H](C)CO)C[C@@H]1C	inactive: -4.91%	
N=c1c2c(ncn1Cc1ccco1)Oc1ccc3ccccc3c1C2c1ccccc1 (centres undefined)		inconclusive: 11.2 µM [inhibitor, partial curve, poor fit]
CC(C)n1c(=S)[nH]c2scc(-c3cccs3)c2c1=O		active: 17.8 µM
COc1ccc([N+](=O)[O-])cc1C(=O)Nc1ccc(Cc2ccncc2)cc1	inactive: 3.76%	
Cc1ccc(C)c(NC(=O)COc2coc(CN3CCc4ccccc43)cc2=O)c1		inconclusive: 35.5 µM [inhibitor, partial curve, poor fit]
Cc1cc(O)c(CN(C)C)c2c1C(=O)/C(=C/c1ccco1)O2		active: 11.2 µM
CC1(C)C(=O)Nc2ccccc2N1C(=O)CSc1ncccn1		inconclusive: 17.8 µM [inhibitor, partial curve, poor fit]
O=C(NC1CCN(Cc2ccccc2)CC1)c1ccc(Cn2c(=O)c3ccccc3n(Cc3ccccc3)c2=O)cc1		inconclusive: 89.1 µM [inhibitor, partial curve, poor fit]
CCc1nn2c(=O)cc(COC(=O)c3ccc(SC)cc3OC)nc2s1		inconclusive: 1.26 µM [inhibitor, full curve, poor fit]
Cc1[nH]c(=O)c(C#N)c(C)c1CCC(=O)NCc1ccc(Cl)cc1	inactive: 0.13%	
COc1ccc(C(=O)Nc2ccc3oc(-c4cccc(Cl)c4)cc(=O)c3c2O)cc1		inconclusive: 15.8 µM [inhibitor, partial curve, poor fit]

Compound	activity change, negative = inhibition	Potency
O=C(O)c1ccc2c(=O)n3c(nc2c1)/C(=C/c1ccc(Cl)cc1Cl)CC3		inconclusive: 31.6 µM [inhibitor, single point]
Cc1cc(C)c(S(=O)(=O)/N=C2/C=C(Sc3ncn[nH]3)C(=O)c3ccccc32)cc1C		active: 12.6 µM
Cc1cc2c(=O)n(C)c(SCC(=O)NCC3CCCO3)nc2s1 (centres undefined)		inconclusive: 44.7 µM [inhibitor, partial curve]
CCCN(C(=O)c1cccc(-n2cccc2)c1)c1c(N)n(Cc2ccccc2)c(=O)[nH]c1=O		active: 11.2 µM
CC(=O)c1cccc(-c2ccc3c(=O)[nH]c(Nc4ccccc4)cc3c2)c1		active: 20 µM
COC(=O)c1ccccc1NC(=O)c1ccc(Cn2cc(Cl)cn2)o1		inconclusive: 20 µM [inhibitor, partial curve]
CC(C)OC(=O)c1c(NC(=O)C2CC=CCC2C(=O)O)sc2c1CCCCC2 (centres undefined)		inconclusive: 25.1 µM [inhibitor, full curve, poor fit]
COc1cc2ccc(=O)oc2cc1OCC(O)C(C)(C)O (centres undefined)	inactive: -4.34%	
CC1=Nc2ccccc2/C1=C/c1c(N)n2c(S(=O)(=O)CC(C)C)nsc2nc1=O		active: 39.8 µM
C/C(=N\NC(=O)c1ccc(OC2OCCOC2Oc2ccc(C(=O)N/N=C(\C)c3ccncc3)cc2)cc1)c1ccncc1 (centres undefined)		inconclusive: 50.1 µM [inhibitor, partial curve, poor fit]
O=C(c1ccc(COc2ccccc2Cl)o1)N1CCCC1	inactive: -11.2%	
O=C(N/N=C/c1ccncc1)c1cc(-c2ccc(Br)s2)[nH]n1		active: 79.4 µM
CCC(C(=O)OC)n1cnc2scc(-c3ccc(C)c(C)c3)c2c1=O (centres undefined)		inconclusive: 44.7 µM [inhibitor, partial curve, poor fit]
Cc1cc(N2O[C@]34C=C[C@]25C[C@@H](O)CC[C@]5(C)C3CC[C@]2(C)[C@@H]([C@H](C)/C=C/[C@H](C)C(C)C)CC[C@H]24)no1 (some centres undefined)	inactive: -11.1%	
COc1cc(C(=S)N2CCCC2)cc(Cl)c1OCC(=O)Nc1ccc(C)cc1C		inconclusive: 56.2 µM [inhibitor, partial curve, poor fit]
COc1ccccc1NC(=O)COC(=O)c1c[nH]c2ccccc12		inconclusive: 100 µM [inhibitor, partial curve, poor fit]
COc1cc(Cl)c(C)cc1NC(=O)CSc1ncc(S(=O)(=O)c2ccc(C(C)(C)C)cc2)c(=O)[nH]1		active: 10 µM
